# Data published in PMC6919601, “Identification of Plasmodium dipeptidyl aminopeptidase allosteric inhibitors by high throughput screening” (PLoS ONE, 2019).
# Out of some 110,000 compounds screened, about 230 (0.21%) showed an effect of 50% or more. Some of the results follow.
# Target: DPAP1 (Plasmodium falciparum, UniProt Q8IIJ9)
# Test: primary screen, percent inhibition; read by cleavage of a fluorogenic dipeptide substrate; higher = more effect of the substance
# Parameters: species or system P. falciparum D10 trophozoite lysates; single well
# 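Further: 30 min substrate incubation versus DMSO and 10 µM JCP410 controls.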
# Sequence of DPAP1 (Q8IIJ9 whole entry, looked up): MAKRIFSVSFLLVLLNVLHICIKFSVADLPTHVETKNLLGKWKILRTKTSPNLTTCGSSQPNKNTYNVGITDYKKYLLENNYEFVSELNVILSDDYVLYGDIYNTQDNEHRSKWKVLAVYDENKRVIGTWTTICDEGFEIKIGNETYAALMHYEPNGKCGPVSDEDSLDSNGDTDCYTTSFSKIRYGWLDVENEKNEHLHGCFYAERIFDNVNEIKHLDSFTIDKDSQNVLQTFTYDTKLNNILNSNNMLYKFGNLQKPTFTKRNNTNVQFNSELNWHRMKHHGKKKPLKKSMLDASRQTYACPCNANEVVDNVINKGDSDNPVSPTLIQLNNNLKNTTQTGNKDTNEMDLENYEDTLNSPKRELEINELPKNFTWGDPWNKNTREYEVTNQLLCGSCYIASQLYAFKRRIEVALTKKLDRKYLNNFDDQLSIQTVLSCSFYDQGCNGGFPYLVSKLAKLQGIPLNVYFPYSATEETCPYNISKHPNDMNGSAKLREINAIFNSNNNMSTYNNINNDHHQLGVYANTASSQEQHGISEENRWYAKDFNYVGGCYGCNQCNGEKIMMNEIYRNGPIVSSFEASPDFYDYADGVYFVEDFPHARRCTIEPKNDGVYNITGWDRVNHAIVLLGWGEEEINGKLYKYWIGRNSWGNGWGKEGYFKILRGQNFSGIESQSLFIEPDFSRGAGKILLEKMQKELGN
row,Compound,% Inhibition @ 10 uM [%]
1,Cc1nc2nc(NC(=O)c3ccncc3)nn2c(C)c1Cl,-3.08
2,CC1=C(C(=O)Nc2cccc(C)c2C)C(c2ccc(Cl)cc2)NC(=O)N1 (centres unmarked),-2.6
3,COc1ccccc1N1C(=O)c2ccc(C(=O)NCc3ccc4c(c3)OCO4)cc2C1=O,-2.22
4,Cc1[nH]c(-c2ccc(F)cc2)cc1C(=O)N1CCCCC1,-0.361
5,CN(Cc1ccccc1)C(=O)Cn1cc(S(=O)(=O)Cc2cccc(Cl)c2)c2ccccc21,-1.6
6,CCN(CC)c1ccc(-c2ccc3ccccc3n2)cc1,1.74
7,CCNc1nc(NC(C)C)nc(NS(=O)(=O)c2ccc(C)cc2)n1,2.94
8,Cc1ccc(Sc2c(C)nn(C(=O)Cc3ccccc3)c2C)cc1,1.63
9,c1cc(CNc2ccc3c(c2)CCC3)ccn1,-4.04
10,CN1C(=O)c2ccccc2C(C(=O)NCc2ccc3c(c2)OCO3)C1c1c[nH]c2ccccc12 (centres unmarked),-6.57
11,Cc1cc(C)c2c(N)c(C(=O)N3CCC(C)CC3)sc2n1,8.18
12,OCC1OC(Nc2ccc(-c3ccc(NC4OC(CO)C(O)C(O)C4O)cc3)cc2)C(O)C(O)C1O (centres unmarked),1.42
13,O=C(c1ccccc1)c1ccc2nc(N3CCCCC3)c3nncn3c2c1,1.3
14,CC(C)NC(=O)c1cnn2c(C(F)(F)F)cc(-c3ccc(F)cc3)nc12,0.224
15,CCc1ccccc1N1C(=O)CC(N2CCc3ccccc32)C1=O (centres unmarked),3.91
16,CCC1(C)CC(=O)c2c(ccc3oc(C(=O)NCCc4ccc(OC)c(OC)c4)c(C)c23)O1 (centres unmarked),-3.96
17,CCC(CC)C(=O)Nc1ccc(S(=O)(=O)Nc2nccs2)cc1,0.0265
18,C=Cc1ccc(Cn2c(C)c(CNCCCc3ccccc3)c(C(=O)O)c2C)cc1,2.99
19,CCc1ccc(C(=O)c2cnc3cc4c(cc3c2N2CCN(CC)CC2)OCO4)cc1,-4.86
20,CCCCc1n[nH]c(SCc2nc(O)c3ccccc3n2)n1,1.32
21,CCOc1ccc(C2c3c(-c4ccccc4O)n[nH]c3C(=O)N2CCCO)cc1 (centres unmarked),5.17
22,CCN(CC)CCN(CC)Cc1ccccc1Br,-7.93

row,Compound,% Inhibition @ 10 uM [%]
1,CN(Cc1ccccc1)C(=O)c1oc(=O)c2ccccc2c1-c1ccccc1,-5.22
2,OCc1nc2ccccc2n1Cc1ccccc1,-3.35
3,CCC(=O)N1c2ccccc2N=C2CC(C)(C)CC(O)=C2C1c1ccccc1OC (centres unmarked),32
4,Cc1nc2ccccc2c2nc3ccccc3n12,-4.7
5,O=C(NCc1ccc(F)cc1)C1CCCN(S(=O)(=O)c2cccnc2)C1 (centres unmarked),4.01
6,COc1ccccc1-c1nc(COc2cc(C)c(Cl)c(C)c2)no1,5.54
7,O=c1[nH]c2c(c(=O)n1C1CCCCC1)CCC2,5.08
8,CCOc1cc(C2C(C(=O)OC)=CN(C)C=C2C(=O)OC)cc(Br)c1O,3.45
9,CC(O)CN(CC(C)O)CC1CC2C=CC1C2 (centres unmarked),-4.14
10,N#CCNC(=O)[C@H](Cc1cccc2ccccc12)NC(=O)c1ccccc1,-5.21
11,C1CN(c2nc(N3CCOCC3)nc(N3CCOCC3)n2)CCO1,-4.35
12,COc1cc(CNC(=O)c2ccc(Br)o2)cc(OC)c1OC,-3.21
13,Cc1ccc(S(=O)(=O)c2nnn(-c3cccc(C)c3)c2N)cc1,-1.71
14,N#Cc1c(N)nc2c(c1-c1ccccc1F)CCCCC2,-2.39
15,CN1CCCN(Cc2ccoc2)CC1,-0.828
16,CC1CC(C)CN(CCCNC(=O)c2ccc3nc(N4CCCCC4)sc3c2)C1 (centres unmarked),0.828
17,Fc1cccc(Cl)c1CNc1ccc(CNc2nc[nH]n2)cc1,-1.43
18,N#CCNC(=O)[C@H](CC1CCCCC1)OC(=O)N1CCCC1,-3.48
19,CCCCOc1ccc(C(=O)Nc2c3c(nn2-c2ccc(OC)cc2)CS(=O)(=O)C3)cc1,-0.657
20,O=C(O)C1=NN(c2ccc(S(=O)(=O)O)cc2)C(=O)C1,-2.59
21,CCCc1nc2nc(C)c(NS(=O)(=O)c3cccc(C#N)c3)c(O)n2n1,10.4
22,Cc1ccccc1C(=O)c1c(O)c2ccccc2n(C)c1=O,5.63

row,Compound,% Inhibition @ 10 uM [%]
1,COC(=O)c1cc(-c2ccc(C)cc2)on1,3.87
2,O=C(NCC(c1ccccc1)c1ccccc1)Nc1cccc2ccccc12,-0.239
3,CN(C)CCCN(C(=O)c1ccc(Br)s1)c1nc2ccc(Cl)cc2s1,-4.05
4,CCOC(=O)N1CCN(C(=O)CCc2c(C)nc3c(c(C)nn3-c3ccc(C)c(C)c3)c2C)CC1,-0.465
5,Cc1ccc(O)c(-n2cc3c(c2-c2ccc(Cl)cc2)c(=O)n(C)c(=O)n3C)c1,0.366
6,CCN(Cc1ccccc1)C(=O)N[C@@H](CC(C)C)C(=O)NCC#N,-6.98
7,CC12CN3CC(c4ccccc4)(CN(C1)C31CCCCC1)C2=O,-3.08
8,COc1ccc(CCC(C)NC2C3CC4CC(C3)CC2C4)cc1 (centres unmarked),1.26
9,O=C(c1cc2ccccc2oc1=O)N(c1ccccc1)c1ccccc1,1.8
10,NC(=O)C1CCN(C2CC3CCC2C3)CC1 (centres unmarked),1.37
11,Cc1ccc(C)c(CN2CCN(Cc3ccccc3)CC2)c1,-5.41
12,CC(CNc1nc2ccc(Cl)cc2n2cnnc12)c1ccccc1 (centres unmarked),1.15
13,O=C(COc1ccc(S(=O)(=O)N2CCCC2)cc1)Nc1ccc(Oc2ccccc2)cc1,2.6
14,O=C(O)CN1C(=O)c2ccccc2C1=O,0.968
15,Cc1ccc(CN(Cc2ccco2)C(=O)COc2ccc(Br)cc2)o1,2.08
16,COc1ccc(N(CN2C(=O)C3CCCCC3C2=O)C(C)=O)cc1 (centres unmarked),-0.28
17,O=C(Cn1ncc2c1-c1ccccc1OC2)NC1CCN(Cc2ccccc2)CC1,-0.692
18,CCOc1ccc(CC(=O)Nc2cccc(C(F)(F)F)c2)cc1OCC,-0.132
19,Cc1ccc(CN2CCN(C(=O)COc3ccccc3)CC2)cc1,0.0504
20,COc1cccc(CNc2nc3ccc(C)cc3n3nnnc23)c1,-0.414
21,Cc1ccccc1C1C=C(c2ccc(Br)s2)Nc2nnnn21 (centres unmarked),-1.62
